# From PMC4336329 (PLoS ONE, 2015)
# Screen size: about 310,000 compounds; about 14,000 (4.5%) showed an effect of 50% or more. The effect is printed as a negative number. The list shows a part of the results.
# Biological target: human ether-à-go-go-related gene (hERG) potassium channel (human, UniProt Q12809)
# Experiment: primary screen, population patch clamp on CHO cells stably expressing hERG
# 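Further: peak tail current of the secondary pulse compared with the same well before compound.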
# Chain of human ether-à-go-go-related gene (hERG) potassium channel (Q12809 whole entry, looked up): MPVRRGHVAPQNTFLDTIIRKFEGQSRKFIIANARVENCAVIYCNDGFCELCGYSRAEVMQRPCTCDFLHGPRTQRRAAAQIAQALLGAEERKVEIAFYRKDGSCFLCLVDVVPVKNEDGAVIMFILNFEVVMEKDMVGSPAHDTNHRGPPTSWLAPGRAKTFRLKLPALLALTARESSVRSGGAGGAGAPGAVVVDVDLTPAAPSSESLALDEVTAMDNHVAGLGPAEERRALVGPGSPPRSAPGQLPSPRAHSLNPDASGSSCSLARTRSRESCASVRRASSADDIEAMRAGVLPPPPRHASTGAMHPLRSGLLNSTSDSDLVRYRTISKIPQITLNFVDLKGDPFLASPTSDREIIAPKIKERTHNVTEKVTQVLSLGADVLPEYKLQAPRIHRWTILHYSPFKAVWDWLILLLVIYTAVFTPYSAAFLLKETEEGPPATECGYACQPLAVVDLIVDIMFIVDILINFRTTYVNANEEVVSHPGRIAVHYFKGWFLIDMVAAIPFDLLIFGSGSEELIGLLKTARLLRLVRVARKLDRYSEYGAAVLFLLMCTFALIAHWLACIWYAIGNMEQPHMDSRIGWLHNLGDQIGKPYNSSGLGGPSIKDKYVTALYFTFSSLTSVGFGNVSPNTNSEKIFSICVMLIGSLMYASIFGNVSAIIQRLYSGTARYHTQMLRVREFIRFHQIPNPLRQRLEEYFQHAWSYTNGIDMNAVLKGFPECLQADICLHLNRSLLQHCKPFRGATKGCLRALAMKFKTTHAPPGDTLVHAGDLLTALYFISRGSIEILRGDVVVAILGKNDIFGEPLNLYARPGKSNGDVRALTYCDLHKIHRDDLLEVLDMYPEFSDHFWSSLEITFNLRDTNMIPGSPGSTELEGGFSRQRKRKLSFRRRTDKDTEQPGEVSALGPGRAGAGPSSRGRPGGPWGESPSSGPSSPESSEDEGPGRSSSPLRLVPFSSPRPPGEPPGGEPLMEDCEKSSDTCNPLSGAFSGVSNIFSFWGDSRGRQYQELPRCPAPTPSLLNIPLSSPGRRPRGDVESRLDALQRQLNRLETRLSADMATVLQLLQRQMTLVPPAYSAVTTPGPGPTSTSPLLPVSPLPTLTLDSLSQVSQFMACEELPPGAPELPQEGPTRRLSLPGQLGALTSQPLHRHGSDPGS
row,Compound,"hERG current change (%, negative = inhibition) at 10uM [%]"
1,COC(=O)c1cccc(NC(=O)c2cnoc2C)c1,-7.73
2,Cc1ccc(C(=O)NCCCN2CCOCC2)cc1S(=O)(=O)N1CCOCC1,2.89
3,O=C(N1CCOCC1)N1CCN(c2ccccc2F)CC1,12.3
4,COc1cccc(Nc2ccc(-n3ccnc3)nn2)c1,11.1
5,CC(C)c1ccc(/C=C/C(=O)NC(=S)NN2CCOCC2)cc1,13.5
6,COc1ccc(/C(C)=N/NC(=O)CNC(=O)c2ccco2)c(OC)c1,-19.2
7,CC(=O)N1CCN(CCN=Cc2c(O)n(-c3ccc(C)cc3)c(=S)[nH]c2=O)CC1,15.5
8,O=C1CC(=C2c3ccccc3-c3ccccc32)C(=O)N1CCN1CCN(c2ccccc2)CC1,-5.16
9,COc1ccc(N=C2NC(=O)S/C2=C\c2ccc(N(C)C)cc2)cc1,13.4
10,CCOC(=O)CSc1ccc(C(=O)Nc2ccc(OC)cc2)cn1,10.8
11,CC1(C)CC(=O)C2=C(C1)OC(N)=C(C#N)C2C#Cc1ccccc1 (stereo not shown),13.2
12,CN1CCN(Cc2c(O)ccc3cc(-c4ccccn4)c(=O)oc23)CC1,12.1
13,CN(C)S(=O)(=O)c1ccc(-c2ccccc2)cc1,0.03
14,Cc1csc2ncc(C(=O)NCCc3ccccc3)c(=O)n12,-14.3
15,O=C(Nc1cc(Cl)ccc1N1CCOCC1)c1ccc(N2CCCC2=O)cc1,8.17
16,COC(=O)Cn1c(=NC(=O)CSCC(=O)Nc2cc(C)on2)sc2cc(C(=O)OC)ccc21,11.6
17,C=CCn1c(SCC(=O)Nc2cc(C)on2)nc2sc3c(c2c1=O)CCCC3,-4
18,CC1C(=O)O[C@@H]2C[C@@H](C)[C@@H]3CCC(=O)[C@@]3(C)[C@@H](O)[C@H]12 (stereo partly shown),5.38
19,COc1ccc(-c2nc(CSCC(=O)NC3CCN(Cc4ccccc4)CC3)c(C)o2)cc1OC,-40.9
20,COc1ccc(CC(=O)NC2CCSc3ccccc32)cc1OC (stereo not shown),2.41
21,COCCNC(=O)NC(=O)CSc1nc(C)c(C)c(C)n1,-5.8
22,COc1cc(/C=N/N2CCOCC2)ccc1OCc1ccccc1,12.3
23,CCCCNC1c2ccccc2C(=O)N1Cc1ccccc1.Cl (stereo not shown),-38.7
24,COc1cc(CC(=O)OCC(=O)Nc2sccc2C(N)=O)cc(OC)c1OC,6.98
25,COc1ccc(CCC(=O)Nc2ncc(C)s2)cc1,21.4
